# According to the supplement of paper PMC5499739:
# Whole data set: some 16,000 sequences, median “Z-score” near -0.37, cut for the highest 2% near 3.1. The list shows a part of the results.
# Tested on: RBM10 RRM1-ZnF-RRM2 (GST-tagged construct)
# Assay: RNAcompete 7-mer binding Z-score; higher = stronger binding preference
# Procedure, shortened: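 GST-tagged RBM10 constructs (20 pmol) and a designed pool of 241 399 RNAs up to 41 nt (1.5 nmol) were allowed to bind for 30 min at 4°C in 1 ml Hepes pH 7.8 buffer with glutathione Sepharose beads. After four 2-min washes at 4°C, bound RNA was identified by microarray hybridisation. Enrichment was scored per heptamer motif as a one-sided Z-score across the probes containing it.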
row,Sequence,RNAcompete 7-mer binding Z-score
1,UCUGCAA,-0.81
2,GGGUAUG,3.69
3,AGACAUU,-0.548
4,AUCCUCU,-0.679
5,CAGUCAA,-0.34
6,ACAGUGA,0.501
7,UGGUUGA,1.31
8,CGCAAAU,-0.504
9,GGUGACU,1
10,CGGUGUG,1.42
11,UCCUUCG,-0.89
12,AACUUAC,-0.741
13,UGUCUCU,-0.799
14,UAAAAUG,-0.00512
15,GAAAGAA,0.873
16,GCUUUGC,-0.781
17,ACUAGGU,0.308
18,CUUGGAU,-0.439
19,UAGGGUG,4.51
20,CAGGACA,1.07
21,AGGCAGC,0.0313
22,AUGCCCC,-0.65
23,GCCAUCG,-0.646
24,GAGAUUU,-0.315
25,GUGGAGG,4.09

row,Sequence,RNAcompete 7-mer binding Z-score
1,AGCAUGA,-0.369
2,UCUACUC,-0.679
3,GAAGCCA,-0.118
4,ACUCCGC,-0.734
5,AGUAUCU,-0.683
6,UGAUCUC,-0.69
7,UGAUCUG,-0.486
8,GCCCAUU,-0.908
9,UAACUGC,-0.544
10,GGCUUCG,0.00216
11,CCGGCGA,0.0313
12,CCUGCAU,-0.795
13,CGGGGGU,3.06
14,AUGUAUU,-0.42
15,UAUUUCC,-0.912
16,CUGGAAC,-0.0962
17,CCGGACG,-0.0525
18,GAUUCAA,-0.0962
19,GACCGUC,-0.956
20,CGCAGGC,-0.151
21,GUGAAGC,0.428
22,UCCCCCU,-0.566
23,GGAAUAG,2.37
24,CGCACGC,-0.573
25,UCCGUUG,-0.388

row,Sequence,RNAcompete 7-mer binding Z-score
1,GAGGAUC,0.632
2,GAAUCUA,-0.391
3,CGUAAAC,-0.209
4,CUUAGAA,-0.504
5,GUAGUCU,-0.256
6,CUUGGGA,0.945
7,AAGCGUU,-0.249
8,CAUUAAG,-0.125
9,AGACACC,-0.956
10,UAGCCCU,-0.908
11,UAGCAUG,0.0714
12,CCGAUCC,-0.777
13,GCGAAGA,0.519
14,GCGUCCU,-0.697
15,GACCAAC,-0.293
16,AGCUGGU,0.763
17,AACGGGU,3.25
18,AUGCAAA,-0.0889
19,AAACAUA,-0.18
20,ACAAGUU,-0.351
21,AACAUUG,-0.184
22,GAUGCCA,-0.581
23,CCGAUCG,-0.511
24,ACGAAAC,-0.267
25,CCCCCGC,-0.464

row,Sequence,RNAcompete 7-mer binding Z-score
1,ACAGCAU,-0.453
2,AAACCUC,-0.766
3,GAUCAUU,-0.632
4,GCUUUCG,-0.748
5,GGUAGCG,1.64
6,CUGGUCG,-0.0415
7,AACAGAA,0.126
8,ACACUUU,-0.989
9,UCGAUGU,-0.5
10,CUGAGGA,0.323
11,UCGCAUU,-0.683
12,CAUCGCC,-0.876
13,CUAGCGC,-0.741
14,ACUGUCC,-0.843
15,GAUGAUA,0.494
16,GCGCGCU,-0.333
17,ACGGCAG,0.982
18,AAGGACU,0.913
19,UAUGGCC,-0.253
20,CACGAGG,0.731
21,GGGAACG,3.86
22,ACCUCCA,-0.825
23,UGGACCG,0.501
24,GCAUAGU,0.155
25,ACGCCGA,-0.795

row,Sequence,RNAcompete 7-mer binding Z-score
1,AACUGUC,-0.704
2,UUCACGG,-0.318
3,GCCUAAC,-0.672
4,GAAUGCA,0.213
5,GAAGUGA,1.64
6,CCCAUCG,-0.774
7,GAAUCGC,-0.388
8,UCUGCGU,-0.602
9,GGAACCA,1.12
10,CACUAGU,-0.395
11,UCACGCU,-0.734
12,GGACCAC,0.472
13,AGGGUAU,3.41
14,UCGUCUC,-0.57
15,GCCCCGU,-0.541
16,CCAAACC,-0.672
17,AGAUCUA,-0.646
18,GUACUUG,-0.307
19,CCACGAG,-0.296
20,GGGCCCU,-0.439
21,CGGAAGG,2.53
22,CUCUAGG,-0.282
23,CGCCGGA,-0.384
24,UCGAGUU,-0.482
25,CCGGAGU,0.159

row,Sequence,RNAcompete 7-mer binding Z-score
1,GGACUAU,-0.0306
2,ACUCCCC,-0.759
3,GCUUCCG,-0.799
4,CAUCAAG,-0.471
5,ACACCUA,-0.814
6,GGUCCUU,-0.315
7,UGCCAAC,-0.551
8,GCGUGAG,1.01
9,CUACGCC,-0.876
10,GGAUAAU,1.21
11,AAGACUC,-0.581
12,GCAGAGU,0.654
13,UGGUUCC,-0.289
14,CCCACGA,-0.701
15,GACUCAU,-0.85
16,GGGCUCG,0.811
17,UUUGAUG,-0.358
18,UUGACGA,-0.227
19,UCUUUAC,-0.865
20,GGUACCC,0.104
21,UCGAUAC,-0.46
22,AGCCUAA,-0.704
23,UAGUCCG,-0.508
24,AUUGAGU,0.323
25,CGCAAAC,-0.588

row,Sequence,RNAcompete 7-mer binding Z-score
1,CCGCAGU,-0.533
2,AGUGAAA,0.738
3,CUCCAAC,-0.61
4,UAUAUCU,-0.588
5,CCGGUUU,-0.53
6,GAGCAGU,0.614
7,AAUCGUA,-0.205
8,UACCAGC,-0.373
9,UAGUUAC,-0.198
10,GAGGAGA,1.89
11,GAGUAGG,3.6
12,AGUUUUG,-0.0707
13,GCUAGCG,-0.0233
14,CGGAUUC,-0.195
15,UGGUGAG,2.71
16,AGCUAGA,-0.224
17,ACGUCAA,-0.522
18,AACAUAA,-0.362
19,CCGGUCA,-0.449
20,UCUCGGC,-0.708
21,CAGCCGU,-0.701
22,CGGGGUU,2.23
23,GCCGAGU,-0.635
24,UUUAGGA,0.348
25,GCCAAGG,0.964

row,Sequence,RNAcompete 7-mer binding Z-score
1,UGCCUUG,-0.868
2,GUGAUCG,0.439
3,CGUAGCG,0.232
4,AACGCGA,-0.111
5,UGCGGGC,1.07
6,CGAAUGA,-0.282
7,GUUAUUC,-0.581
8,GUAAAAC,0.304
9,ACCUAUA,-0.785
10,UGAGGUG,2.45
11,GCAGGAA,2.07
12,GGCGCGG,1.92
13,AUCAAUG,0.206
14,UUGCUAC,-0.719
15,GCGUUUC,-0.457
16,CCAGAAU,-0.406
17,AGACCCA,-1.11
18,UUAGUCG,-0.351
19,GUCCUGU,-0.417
20,CUCAUGC,-0.948
21,CAACCCU,-0.908
22,CUACUUU,-0.901
23,UGCUCCC,-0.821
24,CCCGUAA,-0.592
25,ACGCUGU,-0.657

row,Sequence,RNAcompete 7-mer binding Z-score
1,AGUCAAC,-0.0707
2,UAUACCC,-0.672
3,UGGGACG,2.27
4,CUUUUCU,-0.814
5,CCGCCCG,-0.679
6,CCGGUUG,0.224
7,CAAAAUC,-0.537
8,AGCCCUG,-0.846
9,GACUUGU,-0.821
10,GGGCUCA,0.556
11,UAAUCGA,-0.311
12,GGUGCGG,2.6
13,GCCUAUC,-0.828
14,CGGCGAU,0.348
15,GUGGGAU,3.57
16,GAUCUUU,-0.77
17,ACGAGGU,1.36
18,AGAACCU,-1.06
19,AAAUGGG,4.04
20,AGACUUG,-0.635
21,AGUGUGC,0.359
22,AGGUAUC,0.0641
23,UCGCUGC,-0.719
24,ACCUAGU,-0.577
25,UGGAGAG,2.12

row,Sequence,RNAcompete 7-mer binding Z-score
1,ACACCUG,-0.635
2,CAAUACC,-0.65
3,GGCUCCG,-0.231
4,CACACUG,-0.446
5,CGUACCG,-0.38
6,GGUGACA,2.07
7,CCCACUA,-0.85
8,AGGUAAC,0.942
9,CAUGUAU,-0.522
10,CCGGAAC,-0.362
11,UAAUUCU,-0.806
12,ACAACCU,-0.956
13,AUGUAUG,0.221
14,GCAUUUC,-0.799
15,AGAAGUG,1.25
16,AGAUCUC,-0.952
17,GAAGAAA,0.796
18,CUUUUAU,-0.938
19,ACCGGGC,0.304
20,AAGUAUC,-0.613
21,UGCGAGG,2.01
22,UAAAUAG,0.024
23,GGGUCUG,0.993
24,UACUAGA,-0.42
25,CCCAGGC,-0.555

row,Sequence,RNAcompete 7-mer binding Z-score
1,CACCGCC,-0.701
2,UGAAUUG,0.268
3,CUCCCAA,-0.759
4,UAGGACU,0.202
5,UUUCGUG,-0.398
6,UAUUAAC,-0.613
7,CCGACGC,-0.46
8,ACAACUG,-0.449
9,ACCCCUU,-0.795
10,CGGACAU,0.17
11,AAAUCGC,-0.781
12,GUCUAGG,0.352
13,CGAGCCC,-0.697
14,GGUAGCC,0.552
15,GAACCUA,-0.675
16,GCGUGCC,-0.267
17,CAACCGU,-0.577
18,CCCCACC,-0.431
19,UUGGACA,0.417
20,AUGGUGA,2.09
21,CCUUGCC,-0.89
22,GGUUCAG,0.752
23,GAGUUGA,0.763
24,UUAGUUU,-0.242
25,CGUGCGC,-0.18

row,Sequence,RNAcompete 7-mer binding Z-score
1,CACAUGG,0.793
2,UAGGCUA,0.392
3,AAACUUA,-0.686
4,GUCCCGU,-0.358
5,UACAAGA,-0.216
6,AAUAGGU,1.27
7,AUCUCCG,-0.806
8,UGUCACU,-0.843
9,GCGAUUC,-0.621
10,CUACGCG,-0.439
11,CUCAUAU,-0.832
12,GCUCAAU,-0.475
13,AUGCUCC,-0.799
14,AGGGGAU,3.41
15,AGAGCGG,1.46
16,GAUAGCG,0.938
17,GAAUCUG,-0.632
18,UCGGCGG,0.388
19,AAGUCGA,-0.205
20,CAGGCAU,0.264
21,CCAGCGU,-0.5
22,GGACCCA,-0.202
23,UAUAAGC,-0.442
24,CUGUCAC,-0.857
25,CAUAACC,-0.744

row,Sequence,RNAcompete 7-mer binding Z-score
1,GAUAUGA,0.643
2,GUUCGCC,-0.544
3,ACAAGAG,0.763
4,AGGGCCG,0.683
5,UUAGGUA,1.01
6,AGGCCAC,-0.595
7,ACACGCU,-0.581
8,CUAUUCU,-0.821
9,GGGCGGC,1.91
10,UACCGGC,-0.464
11,AAGGUGA,3.62
12,CUGUAAA,-0.606
13,UGGCUUC,-0.537
14,AAAUCUA,-0.497
15,UUUCAAA,-0.537
16,CGUAUUA,-0.369
17,AGUCCGU,-0.697
18,AGGUACC,0.101
19,AAUGCGG,1.23
20,AUCGUUG,-0.522
21,GUAACGC,-0.147
22,UAAGCUU,-0.661
23,CUAGCAA,-0.632
24,ACUAUGA,-0.482
25,CAACGGC,-0.0379

row,Sequence,RNAcompete 7-mer binding Z-score
1,CUUAAUU,-0.836
2,ACCGUUU,-1.01
3,AAAGCGA,0.825
4,GGUAGCA,1.62
5,AACUUAG,-0.46
6,UUGAUAA,-0.515
7,UUGCGCC,-0.683
8,CCAGCUG,-0.653
9,CCCGCAA,-0.774
10,AACGUUA,-0.326
11,GCCCCGC,-0.599
12,UUCAGGC,-0.315
13,ACGAGGA,1.53
14,UCGUCAA,-0.428
15,CCUAUCU,-0.846
16,UCAUAAG,-0.57
17,CUUCUGG,-0.708
18,CCCGGAU,-0.417
19,ACGACAG,0.355
20,GGCCCAA,-0.333
21,CUAGUUC,-0.832
22,GCCGGUC,-0.377
23,CGAUCAG,0.144
24,UUCCAGG,0.0131
25,UGAAUGU,-0.0233

row,Sequence,RNAcompete 7-mer binding Z-score
1,GUGAUCA,0.323
2,UCUCUAC,-0.785
3,GCCUGAU,-0.846
4,GCAAAAC,0.133
5,AAGCGAU,0.264
6,CUCCCAC,-0.734
7,GGAGAGA,1.26
8,CAGUUCA,-0.537
9,UUGAUGG,0.993
10,AUAGAGC,0.534
11,GCGCAAA,-0.00512
12,UCACCGU,-0.814
13,AGGGUGA,4.25
14,UAACGCC,-0.857
15,UUUAGUC,-0.519
16,CGACGCA,-0.355
17,GUUCUCG,-0.661
